Laboratory results as given in the supplement of paper PMC8748497.
Some of the results follow.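 The calls were made as follows: active = fold change of at least 2 over DMSO control; inactive = below 2-fold.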 Many values rest on one well or one pass, so single values are uncertain.

test system: HEK293 ARE/NRF2-luciferase reporter; assay: ARE/NRF2 luciferase reporter activity, fold change over DMSO control; higher = stronger NRF2/ARE reporter activation; conditions: 10 µM; 24 h

ARE/NRF2 luciferase reporter activity, inactive:
Cc1nccnc1N1CCCCC1 1.06
Oc1c(I)cc(I)c2cccnc12 1.04
COC(=O)[C@@H]1CC2=CC(=O)CC[C@]2(C)[C@@]23O[C@@H]2C[C@@]2(C)[C@@H](CC[C@@]24CCC(=O)O4)[C@H]13 0.888
COc1cc(OC)c(C(=O)CCCN2CCCC2)c(OC)c1 0.934
COCCCOc1cc(C[C@@H](C[C@H](N)[C@@H](O)C[C@H](C(=O)NCC(C)(C)C(N)=O)C(C)C)C(C)C)ccc1OC 0.923
CCCCCC1C(=O)CCC1CC(=O)OC (stereo unspecified) 1.03
CCC1(C)OC(=O)N(C)C1=O (stereo unspecified) 0.868
CC(C)(S)[C@@H](N)C(=O)O 0.887
NC(N)=Nc1nc(CSCC/C(N)=N/S(N)(=O)=O)cs1 1.02
O=c1n(CCCN2CCN(c3cccc(Cl)c3)CC2)nc2ccccn12 1.19
CCn1nc(C(=O)O)c(=O)c2cc3c(cc21)OCO3 1.03
O=C(c1cccnc1)N1CCOCC1 0.89
Cc1c(NC(=O)c2cccnc2)c(=O)n(-c2ccccc2)n1C 0.863
CC(=O)c1c(O)cc(O)cc1O 0.751
CC(C)(C(=O)c1cccnc1)c1cccnc1 0.999
CO[C@@H]1[C@@H](O[C@@H]2O[C@H](C)[C@@H](O[C@H]3C[C@@](C)(O)[C@@H](OC(=O)CC(C)C)[C@H](C)O3)[C@H](N(C)C)[C@H]2O)[C@@H](CC=O)C[C@@H](C)[C@@H](O)/C=C/C=C/C[C@@H](C)OC(=O)C[C@H]1OC(C)=O 0.799
